{"source": "paper PMC4336329", "about": "(PLoS ONE, 2015)", "note": "Screen size: about 310,000 compounds; about 2,200 (0.71%) showed an effect of 50% or more. The effect is printed as a negative number. This is one part of the list."}
{"target": "human ether-à-go-go-related gene (hERG) potassium channel (human, UniProt Q12809)", "sequence (Q12809 whole entry, looked up)": "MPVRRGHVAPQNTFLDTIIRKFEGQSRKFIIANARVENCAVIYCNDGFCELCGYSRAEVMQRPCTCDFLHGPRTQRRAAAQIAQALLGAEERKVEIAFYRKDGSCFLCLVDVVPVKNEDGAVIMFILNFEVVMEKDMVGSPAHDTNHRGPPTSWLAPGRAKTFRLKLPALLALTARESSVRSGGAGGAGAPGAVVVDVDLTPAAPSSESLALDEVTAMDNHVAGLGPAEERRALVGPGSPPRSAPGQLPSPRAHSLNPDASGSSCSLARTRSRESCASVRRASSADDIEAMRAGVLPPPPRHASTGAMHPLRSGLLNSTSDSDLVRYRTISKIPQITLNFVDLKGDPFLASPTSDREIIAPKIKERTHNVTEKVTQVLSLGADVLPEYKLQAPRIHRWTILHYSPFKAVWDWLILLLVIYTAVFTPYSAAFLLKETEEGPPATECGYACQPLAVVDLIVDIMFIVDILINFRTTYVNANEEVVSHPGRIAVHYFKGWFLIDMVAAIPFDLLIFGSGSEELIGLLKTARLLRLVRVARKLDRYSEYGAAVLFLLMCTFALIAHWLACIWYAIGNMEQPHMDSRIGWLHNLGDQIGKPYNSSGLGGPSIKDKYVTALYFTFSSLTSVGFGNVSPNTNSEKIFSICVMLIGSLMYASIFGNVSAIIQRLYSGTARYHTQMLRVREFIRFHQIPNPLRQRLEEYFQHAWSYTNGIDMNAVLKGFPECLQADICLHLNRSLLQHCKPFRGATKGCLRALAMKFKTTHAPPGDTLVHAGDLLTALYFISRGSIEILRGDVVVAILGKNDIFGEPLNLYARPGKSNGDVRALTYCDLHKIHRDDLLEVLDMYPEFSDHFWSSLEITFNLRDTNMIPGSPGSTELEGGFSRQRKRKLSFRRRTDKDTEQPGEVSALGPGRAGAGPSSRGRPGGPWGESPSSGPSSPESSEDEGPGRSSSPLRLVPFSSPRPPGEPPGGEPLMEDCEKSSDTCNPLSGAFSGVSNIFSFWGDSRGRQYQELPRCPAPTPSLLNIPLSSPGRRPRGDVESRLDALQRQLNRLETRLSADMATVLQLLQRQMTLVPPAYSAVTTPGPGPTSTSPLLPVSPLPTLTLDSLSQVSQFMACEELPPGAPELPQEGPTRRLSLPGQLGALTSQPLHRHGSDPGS", "assay": "primary screen, population patch clamp on CHO cells stably expressing hERG", "units": {"hERG current change (%, negative = inhibition) at 1uM": "%"}}
{"smiles": "Cc1ccc(NC(=O)C2CCN(S(C)(=O)=O)CC2)cc1Cl", "hERG current change (%, negative = inhibition) at 1uM": 15}
{"smiles": "COc1cc(=O)oc(-c2ccccc2)c1C(C)=O", "hERG current change (%, negative = inhibition) at 1uM": 15.7}
{"smiles": "COc1cnc(-c2ccccc2)nc1OC", "hERG current change (%, negative = inhibition) at 1uM": 20.2}
{"smiles": "CCCCOc1c(Cl)cc(CNC(C)(C)CO)cc1OCC", "hERG current change (%, negative = inhibition) at 1uM": 10.3}
{"smiles": "CCC(C)(C)n1nnnc1C(c1cccc(C#N)c1)N1CCN(c2cc(C)ccc2C)CC1", "note": "(stereo not drawn)", "hERG current change (%, negative = inhibition) at 1uM": 12.9}
{"smiles": "CC(=O)N1CCN(C(=O)c2ccc(NS(=O)(=O)c3ccc4c(c3)OCCO4)cc2)CC1", "hERG current change (%, negative = inhibition) at 1uM": 13}
{"smiles": "Cn1c(N)c(C(=O)COC(=O)CNS(=O)(=O)c2ccc(Cl)c(Cl)c2)c(=O)n(C)c1=O", "hERG current change (%, negative = inhibition) at 1uM": 1.58}
{"smiles": "Cc1ccc(-n2nc3c(c2NC(=O)c2ccc4c(c2)OCO4)CS(=O)(=O)C3)c(C)c1", "hERG current change (%, negative = inhibition) at 1uM": 9.43}
{"smiles": "O=C(COc1ccc(S(=O)(=O)N2CCCC2)cc1)NCc1ccco1", "hERG current change (%, negative = inhibition) at 1uM": 12.6}
{"smiles": "N/C(Cc1ccc(Cl)cc1Cl)=N\\OC(=O)Cc1ccccc1", "hERG current change (%, negative = inhibition) at 1uM": 11.2}
{"smiles": "CC(C)CNC1CS(=O)(=O)CC1O.Cl", "note": "(stereo not drawn)", "hERG current change (%, negative = inhibition) at 1uM": 6.27}
{"smiles": "O=S(=O)(c1ccccc1F)N1CCC(c2nc3ccccc3[nH]2)CC1", "hERG current change (%, negative = inhibition) at 1uM": 2.11}
{"smiles": "CC1=Nn2c(nc(-c3ccccc3)c2-c2ccccc2)NC(=O)C1Br", "note": "(stereo not drawn)", "hERG current change (%, negative = inhibition) at 1uM": 7.45}
{"smiles": "Cc1ccc(NC(=S)N2CCCCC2)cc1C", "hERG current change (%, negative = inhibition) at 1uM": 14.9}
{"smiles": "COc1cccc(CNS(=O)(=O)/C=C/c2ccc3c(c2)OCO3)c1", "hERG current change (%, negative = inhibition) at 1uM": 10.1}
{"smiles": "NC(=O)c1c(NC(=O)c2ccc(N3C(=O)CCC3=O)cc2)sc2c1CCCC2", "hERG current change (%, negative = inhibition) at 1uM": 2.93}
{"smiles": "CC(=O)c1ccc(Sc2ccccc2)c([N+](=O)[O-])c1", "hERG current change (%, negative = inhibition) at 1uM": 5.05}
{"smiles": "O=C(CSc1nnc(-c2ccccc2)o1)Oc1ccc(Br)cc1", "hERG current change (%, negative = inhibition) at 1uM": -0.433}
{"smiles": "Nc1c(C(=O)N/N=C/c2ccccc2Cl)oc2nc(-c3ccccc3)cc(-c3ccco3)c12", "hERG current change (%, negative = inhibition) at 1uM": 19.3}
{"smiles": "COc1ccccc1CCNC(=O)C1CCN(c2nnc(C)c3c(C)n(-c4ccc(C)cc4)nc23)CC1", "hERG current change (%, negative = inhibition) at 1uM": 14.7}
{"smiles": "CC(OC(=O)c1ccc(S(=O)(=O)NCc2ccco2)cc1)C(=O)Nc1ccc(Cl)cn1", "note": "(stereo not drawn)", "hERG current change (%, negative = inhibition) at 1uM": -7.78}
{"smiles": "Cc1c(NS(=O)(=O)c2ccc3c(c2)CCN3C(=O)C2CC2)c(=O)n(-c2ccccc2)n1C", "hERG current change (%, negative = inhibition) at 1uM": -0.286}
{"smiles": "O=C(C[n+]1ccccc1)N/N=C/c1cccs1.[Cl-]", "hERG current change (%, negative = inhibition) at 1uM": 1.9}
{"smiles": "CCc1cccc(C)c1N1C(=O)CN(Cc2ccccc2)C1=S", "hERG current change (%, negative = inhibition) at 1uM": 2.53}
{"smiles": "COc1ccc(CCNC(=O)c2ccc(CS(=O)(=O)c3ccc(Br)cc3)o2)cc1OC", "hERG current change (%, negative = inhibition) at 1uM": -0.871}
{"smiles": "COCCn1c(SCC(=O)NC2CCCC2)nc2c(c1=O)SCC2", "hERG current change (%, negative = inhibition) at 1uM": 12.7}
{"smiles": "CSc1ccccc1NC(=O)CN(C)CC(=O)Nc1ccccc1N1CCOCC1", "hERG current change (%, negative = inhibition) at 1uM": 23.2}
{"smiles": "O=C(CN1C(=O)NC2(CCCC2)C1=O)Nc1ccc(Cl)cc1F", "hERG current change (%, negative = inhibition) at 1uM": 14.7}
{"smiles": "CCCCN(C(=O)C1=NN(c2ccccc2)C(=O)CC1)c1c(N)n(CC(C)C)c(=O)[nH]c1=O", "hERG current change (%, negative = inhibition) at 1uM": 5.19}
{"smiles": "O=C(OC1CCCCC1=O)c1cc(S(=O)(=O)N2CCOCC2)ccc1F", "note": "(stereo not drawn)", "hERG current change (%, negative = inhibition) at 1uM": 13.7}
{"smiles": "COc1ccc2c(c1)c1ncn(CCCN3CCOCC3)c(=O)c1n2C", "hERG current change (%, negative = inhibition) at 1uM": -8.9}
{"smiles": "CCOC(=O)C1=C(COC(=O)/C=C/c2cc(Br)ccc2F)NC(=O)NC1C", "note": "(stereo not drawn)", "hERG current change (%, negative = inhibition) at 1uM": 7.15}
{"smiles": "O=C(CN1C(=O)NC2(CCCC2)C1=O)OCc1ccccc1", "hERG current change (%, negative = inhibition) at 1uM": 6.03}
{"smiles": "CCNC(=O)OCC12CC3CC(CC(C3)C1)C2", "hERG current change (%, negative = inhibition) at 1uM": 4.37}
{"smiles": "CC(C)Oc1ccc(C(=O)NCC(=O)N2CCN(S(=O)(=O)/C=C/c3ccccc3)CC2)cc1", "hERG current change (%, negative = inhibition) at 1uM": -40.6}
{"smiles": "CC(C)CNS(=O)(=O)c1ccc(CCC(=O)NCCC2=CCCCC2)cc1", "hERG current change (%, negative = inhibition) at 1uM": 12.6}
{"smiles": "CCOc1ccc(Cn2cc(F)c(=O)[nH]c2=O)cc1", "hERG current change (%, negative = inhibition) at 1uM": 13.4}
{"smiles": "CC1CCCN(c2ccc3nncn3n2)C1", "note": "(stereo not drawn)", "hERG current change (%, negative = inhibition) at 1uM": 10.7}
{"smiles": "Cc1nc(NCCN)c(C#N)c2c1COC(C)(C)C2", "hERG current change (%, negative = inhibition) at 1uM": 14.3}
{"smiles": "O=S(=O)(Nc1ccccc1C(F)(F)F)c1ccc(-c2ccccn2)s1", "hERG current change (%, negative = inhibition) at 1uM": 4.24}
{"smiles": "COc1ccc(-n2c3c(c(=O)[nH]c2=O)C(NC(C)=O)(C(F)(F)F)C(=O)N3)cc1", "note": "(stereo not drawn)", "hERG current change (%, negative = inhibition) at 1uM": 3.37}
{"smiles": "O=C(COc1cccc(NC(=O)c2ccccc2)c1)c1ccccc1", "hERG current change (%, negative = inhibition) at 1uM": -0.784}
{"smiles": "Cc1ccc(-n2c(C)cc(C)c(C#N)c2=O)cc1", "hERG current change (%, negative = inhibition) at 1uM": 20.6}
{"smiles": "Cc1ccc(NC(=O)N2CCC(NC(=O)c3ccccc3C)CC2)cc1", "hERG current change (%, negative = inhibition) at 1uM": 8.79}
{"smiles": "CC(C)n1c(SCC(=O)N2CCN(C)CC2)nc2c1c(=O)n(C)c(=O)n2C", "hERG current change (%, negative = inhibition) at 1uM": 10.2}
{"smiles": "O=C(Nc1ccc(F)cc1F)C1CCN(c2ncnc3c2sc2cccc(F)c23)CC1", "hERG current change (%, negative = inhibition) at 1uM": 14.9}
{"smiles": "NS(=O)(=O)c1ccc(CCNC(=O)C(=O)NCC2OCCN2S(=O)(=O)c2cc(F)ccc2F)cc1", "note": "(stereo not drawn)", "hERG current change (%, negative = inhibition) at 1uM": 15}
{"smiles": "CC(=O)Nc1ccc(S(=O)(=O)NC2CC(=O)N(c3ccc(C)cc3)C2)cc1", "note": "(stereo not drawn)", "hERG current change (%, negative = inhibition) at 1uM": 12.1}
{"smiles": "CCC(C)n1c(SCC(=O)NC(=O)c2cccn2C)nc2ccccc2c1=O", "note": "(stereo not drawn)", "hERG current change (%, negative = inhibition) at 1uM": 5.1}
{"smiles": "O=C1/C(=C/c2cccc([N+](=O)[O-])c2)N2CCC1CC2", "hERG current change (%, negative = inhibition) at 1uM": 6.93}
{"smiles": "CCOc1ccc(C2CC(=O)NC3=C2C(=O)CCC3)cc1", "note": "(stereo not drawn)", "hERG current change (%, negative = inhibition) at 1uM": 9.68}
{"smiles": "O=C(Cn1nc(C(=O)O)c2ccccc2c1=O)c1c[nH]c2ccccc12", "hERG current change (%, negative = inhibition) at 1uM": -10.4}
{"smiles": "Cn1c(SCC(=O)c2ccc(O)cc2O)nnc1-c1ccccc1", "hERG current change (%, negative = inhibition) at 1uM": 14.2}
{"smiles": "C=CCN(C(=O)c1csnn1)C(C(=O)NC(C)(C)C)c1ccncc1", "note": "(stereo not drawn)", "hERG current change (%, negative = inhibition) at 1uM": 20.2}
{"smiles": "Cc1nn(C)c(C)c1CCC(=O)O", "hERG current change (%, negative = inhibition) at 1uM": 12.5}
{"smiles": "Cc1cnn(Cc2ccccc2)c1N", "hERG current change (%, negative = inhibition) at 1uM": 17.9}
{"smiles": "COc1ccc(OCC(=O)NCCCN2CCOCC2)cc1", "hERG current change (%, negative = inhibition) at 1uM": 10.4}
